In publication PMC6919601, “Identification of Plasmodium dipeptidyl aminopeptidase allosteric inhibitors by high throughput screening” (PLoS ONE, 2019):
The campaign covered roughly 110,000 compounds. About 230 (0.21%) showed an effect of 50% or more. The list shows a part of the results.

Target: DPAP1 (Plasmodium falciparum, UniProt Q8IIJ9)
Experiment: primary screen, percent inhibition; read by cleavage of a fluorogenic dipeptide substrate; higher = more effect of the substance
Set-up: species or system P. falciparum D10 trophozoite lysates; single well
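Note: 30 min substrate incubation versus DMSO and 10 µM JCP410 controls.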

Sequence of DPAP1 (Q8IIJ9 whole entry, looked up): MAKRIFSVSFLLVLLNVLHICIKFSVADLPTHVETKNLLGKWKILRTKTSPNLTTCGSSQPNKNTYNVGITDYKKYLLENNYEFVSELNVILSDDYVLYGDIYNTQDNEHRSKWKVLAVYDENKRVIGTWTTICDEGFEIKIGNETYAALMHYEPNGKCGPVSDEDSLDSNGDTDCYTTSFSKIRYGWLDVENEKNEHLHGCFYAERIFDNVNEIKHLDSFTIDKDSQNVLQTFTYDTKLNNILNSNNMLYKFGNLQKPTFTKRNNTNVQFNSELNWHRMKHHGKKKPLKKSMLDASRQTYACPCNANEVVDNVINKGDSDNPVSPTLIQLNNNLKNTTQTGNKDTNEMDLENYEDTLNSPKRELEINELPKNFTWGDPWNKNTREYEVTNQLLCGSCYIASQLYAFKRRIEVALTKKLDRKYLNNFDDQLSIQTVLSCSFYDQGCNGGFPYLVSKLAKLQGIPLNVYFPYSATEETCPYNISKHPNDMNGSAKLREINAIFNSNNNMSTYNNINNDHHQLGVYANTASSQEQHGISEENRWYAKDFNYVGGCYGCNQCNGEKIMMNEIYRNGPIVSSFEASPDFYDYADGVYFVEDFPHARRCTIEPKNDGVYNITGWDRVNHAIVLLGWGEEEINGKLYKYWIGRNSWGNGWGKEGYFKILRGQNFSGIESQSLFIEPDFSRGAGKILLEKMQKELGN

Compound	% Inhibition @ 10 uM [%]
Oc1nc(SCc2ccccc2F)nc2c1cnn2-c1ccccc1	-3.35
CN(C1CCCCC1)S(=O)(=O)N1CCCC(C(=O)NCc2ccc3c(c2)OCO3)C1 (stereo not shown)	-2.86
CCOc1ccccc1N(CC(=O)Nc1cccnc1)S(=O)(=O)c1ccc(Cl)cc1	-2.32
COc1ccc(-c2cc(C)no2)cc1S(=O)(=O)N1CCC2(CC1)OCCO2	-2.25
Cc1nc(CSc2ncnc3sc4c(c23)CCC4)cs1	0.0451
COc1ccc(NC(=O)c2ccc(S(=O)(=O)N3CCCCC3C)cc2)cc1 (stereo not shown)	21.9
Cc1ccc(CCNC(=O)C2CCC(CNS(=O)(=O)c3ccc(C)cc3)CC2)cc1 (stereo not shown)	3.74
Cc1ccc2nc(Cl)cc(SCC(=O)NCc3ccco3)c2c1	2.73
CC(C)CCNCC(O)Cn1nnnc1-c1ccccc1 (stereo not shown)	3
FC(F)(F)c1ccccc1CN1CCN(c2ccccc2Cl)CC1	3.01
CC(=O)Oc1ccc2oc(C)c([N+](=O)[O-])c2c1	-4.58
Cc1ccc(CNC(=O)C2CCC(CNc3nc(S)nc4ccccc34)CC2)o1 (stereo not shown)	0.907
CCSc1c(Cl)cnn(-c2ccccc2)c1=O	6.49
O=[N+]([O-])c1ccc(CN2CCC(O)CC2)s1	-4.5
O=C(CNC(=O)c1cccc(Cl)c1)Nc1ccc(Br)cc1C(=O)c1ccccc1	0.214
C=Cc1ccc(Cn2c(C)c(CNCc3ccc(OCC)c(OC)c3)c(C(=O)O)c2C)cc1	-1.92
O=C(Nc1ccc(Cc2ccncc2)cc1)c1ccccc1Br	-1.75
CCN(CC)C1=N/C(=C\c2ccccc2)C(=O)N1c1cccc(Cl)c1	-0.425
O=C(NCCc1ccccc1F)c1ccc2ccccc2c1	-6.91
CCS(=O)(=O)c1nc(S(=O)(=O)c2ccc(Cl)cc2)c(NCCCOC(C)C)s1	-4.04
CC12CC3CC(C)(C1)CC(OCCNC(=O)Cn1ncc4c(=O)oc5ccccc5c41)(C3)C2	10.2
CCCC/N=C(N)/C(C(=O)c1ccc(OC)cc1)=C(/O)OCC	2.57
COc1cc(/C=C2\SC(c3ccc(C)cc3)=NC2=O)ccc1O	2.92
CC(=O)c1ccc(OCc2c(C)noc2C)cc1	-1.49
O=C(Nc1ccc(Br)cn1)c1cccc2ccccc12	-10.8

Compound	% Inhibition @ 10 uM [%]
Cc1ccc(S(=O)(=O)Cc2nc(-c3ccc(C(=O)NCCc4cccs4)cc3)oc2C)cc1	-3.84
Cc1ccc2nc(NCCc3ccc(Cl)cc3)c3nnnn3c2c1	0.166
O=c1oc2ccccc2cc1-c1csc(-c2cc3c(ccc4ccccc43)oc2=O)n1	0.605
O=C(O)C1=NC2NC(c3ccccc3)=CC(=O)N2N1 (stereo not shown)	-3.09
CC(C)c1[nH]nc2c1C(c1ccccc1)C(C#N)=C(N)O2 (stereo not shown)	2.38
CC(CCc1ccccc1)N1CCN(C/C=C/c2ccccc2)CC1 (stereo not shown)	1.9
Cc1c(C(=O)NCCCc2ccccc2)oc2c1-c1n[nH]cc1CC2	-4.68
COc1cc(C=C2C(=O)NC(=S)NC2=O)ccc1O	-6.22
Nc1c([N+](=O)[O-])cc(Cl)c2c1C(=O)c1ccccc1C2=O	2.7
COc1ccc(-c2cc3c(=O)n(CC(=O)N4CCN(C)CC4)ncn3n2)cc1	-1.08
CCOC(=O)c1c(C)[nH]c(C)c1S(=O)(=O)NCC(=O)NC1CCCCC1	-2.13
Cc1nnc(SCCN2C(=O)c3ccccc3C2=O)nc1O	-1.43
CCN(CC)C(=O)c1cc(-c2ccc(C)c(C)c2)[nH]n1	-1.08
COc1cc(C(=O)N2CCN(C(=O)c3cc(-c4ccc(C)c(C)c4)[nH]n3)CC2)cc(OC)c1OC	-0.546
c1ccc(-c2nn3c(-c4ccccc4)nnc3s2)cc1	3.38
Nc1cc(N)cc(-c2nc3ccccc3[nH]2)c1	8.06
COc1ccc(Cl)cc1NC(=O)CCCC(=O)Nc1cc(Cl)ccc1OC	-3.63
COc1ccccc1OCC(=O)N1CCc2ccccc21	-4.01
COc1cccc(-c2nc(CS(=O)(=O)CC(=O)N3CCN(c4ccccn4)CC3)c(C)o2)c1	-3.7
Cc1cc(O)ccc1/N=C1/C=C(O)CC(C)(C)C1	4.7
CCN(CC)S(=O)(=O)c1ccc(NC(=O)c2ccccc2)cc1	-5.4
Cc1n[nH]c(C)c1Nc1nc(-c2ccccc2)c(CC(=O)O)s1	-1.11
O=C(NCc1cccs1)c1oc(=O)c2ccccc2c1-c1ccccc1	0.208
CCOC(=O)c1nc2nc(-c3cccs3)cc(C(F)(F)F)n2n1	-3.52
Cc1cccc(CNCc2c(C(=O)O)n(Cc3ccc(F)cc3Cl)c3cc(C)ccc23)c1	-2.93

Compound	% Inhibition @ 10 uM [%]
Cc1cc2c(c(=O)o1)C(c1ccc(Cl)c(Cl)c1)C(C#N)=C(N)O2 (stereo not shown)	1.54
COc1cc2nc(S)nc(NCCc3ccc(S(N)(=O)=O)cc3)c2cc1OC	4.01
Cn1c(-c2ccc3c(c2)OCO3)cnc1NCc1ccccc1	-2.91
CC1(C(=O)O)CCC(C(=O)NCc2ccccc2)C1(C)C (stereo not shown)	4.54
COc1ccc(NC(=O)C2CCC(N3C(=O)C4C5CCC(C5)C4C3=O)CC2)cc1 (stereo not shown)	-4.68
COCCNC(=O)C(C)n1sc2ccccc2c1=O (stereo not shown)	-6.64
O=C(Nc1cccc(-c2nc3ncccc3o2)c1)c1ccccc1Br	2.42
CCc1ccc(C(=O)CSc2nc(C)cc(O)n2)cc1	2.36
COC(=O)c1ccccc1S(=O)(=O)NC(=O)Nc1nc(N)nc(-c2ccccc2OC)n1	0.716
CC(=O)c1cccc(NC(=O)C(C)Oc2ccc(Cl)cc2Cl)c1 (stereo not shown)	1.72
CCc1nnc2c(NCc3ccc4c(c3)OCO4)nc3ccccc3n12	3.58
Cc1ccc(NC(=O)CN2C(=O)S/C(=C\c3sccc3C)C2=O)cc1	-3.75
Cc1ccc(C)c(N2C(=O)C3C4C=CC(CO)(O4)C3C2=O)c1 (stereo not shown)	-0.641
Cc1ccc(CCNC(=O)c2cnc3ccc(S(=O)(=O)N4CCOCC4)cc3c2Cl)cc1	3.04
C=CCn1c(=N)c(C(=O)NC(C)c2ccccc2)cc2c(=O)n3ccccc3nc21 (stereo not shown)	3.6
COc1ccc(Br)cc1CN1CCN(c2ccccc2OC)CC1	-1.98
COc1ccc(OC)c(CNC2CCCC2)c1	-5.2
CC(C)NCC(=O)NC12CC3CC(CC(C3)C1)C2	-0.711
COc1cc(OC)cc(C(=O)Nc2cccc(-c3nc4ccccc4o3)c2)c1	1.92
Cc1ccccc1-c1nnnn1C1CC(=O)C2OCC1O2 (stereo not shown)	1.03
CCCOc1ccc(N2C(=O)CC(N3CCCC3)C2=O)cc1 (stereo not shown)	0.983
Cc1ccc(NC(=O)c2ccc(-c3ccccc3)cc2)cc1F	1.04
CCc1ccccc1NC(=O)CSC1=C(C#N)C(c2ccco2)C(C(=O)Nc2ccccc2)=C(C)N1 (stereo not shown)	-7.4
COc1ccc(C(=O)Nc2ccccc2OC)cc1Br	4
COc1ccc(CC(=N)NOC(=O)c2ccccc2Cl)cc1	5.23

Compound	% Inhibition @ 10 uM [%]
Cc1ccc(-n2c(C)cc(/C=C3/C(=N)N4C=CSC4=NC3=O)c2C)cc1Cl	2.25
CCOc1ccc(N2C(=O)C3C(c4ccccc4)OC4(C(=O)c5ccccc5C4=O)C3C2=O)cc1 (stereo not shown)	-1.24
CCOCCCNC(=O)Cc1ccc(F)cc1	7.98
O=C(c1cc(-c2ccc(Cl)cc2)n[nH]1)N1CCC(N2CCCCC2)CC1	2.28
CCCOC(=O)c1cccc(-c2ccc(/C=C3/C(=O)N(CCC)C(=O)C(C#N)=C3C)o2)c1	2.56
Cc1ccc2cnn(CCCC(=O)NCc3cccs3)c2c1	-2.88
Cc1ccc(F)cc1NC(=O)CSc1nc(N)cc(N)n1	-2.46
COc1ccc(Cl)cc1S(=O)(=O)Nc1noc2ccccc12	2.19
O=C(O)COc1ccccc1C1OC2CCCCC2C2=CCCCC21 (stereo not shown)	2.94
CC(C)N1C(=O)S/C(=C/c2ccc(C#N)cc2)C1=O	3.49
O=C(NC(c1ccccc1)c1ccccc1)c1ccc(Cl)cc1Cl	-5.26
N#CC1=C(N)Oc2[nH]nc(-c3ccccc3)c2C1c1ccncc1 (stereo not shown)	-5.48
CCOc1ccc(NS(=O)(=O)c2ccc(F)cc2)cc1	3.47
C=C(Br)C[C@H](NC(=O)OCc1ccccc1)C(=O)NC(C#N)c1sccc1C (stereo partly shown)	-1.41
N#CC1=C(N)Oc2c(oc(CO)cc2=O)C1c1c(Cl)cccc1Cl (stereo not shown)	-2.77
Cc1cccc(C2=N/C(=C\c3coc4ccccc4c3=O)C(=O)O2)c1	2.92
O=S(=O)(c1ccc(Cl)cc1)N(Cc1nc(-c2ccccc2)no1)C1CCCCC1	-1.22
COc1ccc(CCNC(=O)CCCN2C(=O)CSc3ncccc32)cc1OC	-4.15
CCC(C(=O)Nc1sc2c(c1C(N)=O)CCCC2)c1ccccc1 (stereo not shown)	-3.24
NC(=O)C1CCCN(C2C3CC4CC(C3)CC2C4)C1 (stereo not shown)	-5.11
CCOC(=O)N1CCN(S(=O)(=O)c2ccc(C3CCCCC3)cc2)CC1	-0.703
CCCCNS(=O)(=O)c1ccc2nc(O)ccc2c1	-2.07
COc1ccc(Br)cc1CNC(=O)C1CCN(c2nnc(N3CCCC3=O)s2)CC1	-4.68
Cn1c(=O)c2c(ncn2CC(=O)Nc2ccc(C(N)=O)cc2)n(C)c1=O	1.02
Cc1sc2ncnc(SCC(=O)NC3CC3)c2c1C	0.843
